# Measured values as given in PubChem BioAssay AID488969 (Vanderbilt High Throughput Screening Facility, 2010).
# In all, about 110,000 compounds were measured (“z-score”: median about -0.1, highest 2% from about 2 on). Some of the results follow. The source made the active and inactive calls.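 The calls were made as follows: active = z-score in the third read window above 3 or below -3; inactive = the rest.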
# Target: Metabotropic glutamate receptor 8 (Rattus norvegicus) (UniProt P70579)
# Experiment: mGluR8 Gi/Go-coupled signaling modulation – cell-based, rat, thallium flux, HTS, primary screen (AID 488969)
# Conditions: HEK293 rat mGluR8, GIRK (G protein-gated inwardly rectifying potassium channel) thallium flux, FluoZin2; at 10 µM; stronger effect = higher value; submaximal glutamate (EC20) added with thallium
# Sequence of UniProt P70579 (P70579 whole entry, looked up): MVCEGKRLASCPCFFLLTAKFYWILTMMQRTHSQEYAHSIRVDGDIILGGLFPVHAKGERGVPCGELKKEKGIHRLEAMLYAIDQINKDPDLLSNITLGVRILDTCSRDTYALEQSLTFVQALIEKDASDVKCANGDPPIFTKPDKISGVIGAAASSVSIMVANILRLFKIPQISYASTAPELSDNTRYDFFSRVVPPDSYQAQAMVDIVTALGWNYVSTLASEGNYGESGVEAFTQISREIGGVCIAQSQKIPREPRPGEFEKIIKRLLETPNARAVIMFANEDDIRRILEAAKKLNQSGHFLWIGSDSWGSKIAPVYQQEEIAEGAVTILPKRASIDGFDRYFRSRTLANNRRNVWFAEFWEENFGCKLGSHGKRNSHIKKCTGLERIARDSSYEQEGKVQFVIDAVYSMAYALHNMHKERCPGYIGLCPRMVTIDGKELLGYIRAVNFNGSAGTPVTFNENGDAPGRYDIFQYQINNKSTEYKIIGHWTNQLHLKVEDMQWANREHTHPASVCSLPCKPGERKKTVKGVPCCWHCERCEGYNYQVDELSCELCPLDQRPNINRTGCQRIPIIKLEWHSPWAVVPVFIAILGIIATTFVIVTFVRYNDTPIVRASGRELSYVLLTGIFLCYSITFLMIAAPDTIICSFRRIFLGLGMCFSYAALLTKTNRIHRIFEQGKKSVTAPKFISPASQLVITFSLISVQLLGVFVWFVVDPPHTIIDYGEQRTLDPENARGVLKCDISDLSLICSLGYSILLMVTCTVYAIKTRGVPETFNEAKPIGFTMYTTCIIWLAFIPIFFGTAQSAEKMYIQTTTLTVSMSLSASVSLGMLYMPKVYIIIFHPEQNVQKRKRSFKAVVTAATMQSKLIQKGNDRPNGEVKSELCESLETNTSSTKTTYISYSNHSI
row,Structure (SMILES),z-score
1,Cc1ccc(Nc2ccc(C(=O)N3CCCC3)cn2)c(C)c1,-0.562
2,Cc1cccc(C)c1NC(=O)CSc1nnnn1C,-0.094
3,O=C(O)C(Cc1ccccc1)N1Cc2ccccc2C1=O (stereo not drawn),0.146
4,COc1ccc2c(c1)[nH]c1c(=O)n(CCCn3ccnc3)cnc12,-0.275
5,O=C1N=C(N2CCCCC2)S/C1=C\c1cn[nH]c1-c1ccccc1,-0.161
6,Cc1cccc(/C=N/c2sc3c(c2C#N)CCN(Cc2ccccc2)C3)c1O,-0.267
7,CCC(C)c1ccc(OCC(=O)Nc2ccc3[nH]c(=O)[nH]c3c2)cc1 (stereo not drawn),-0.156
8,Cc1[nH]nc(-c2ccc(OCc3cnn(-c4ccccc4)c3)c(C)c2O)c1Oc1ccccc1,-0.416
9,C=CCNc1nc(-c2c(C)nc3sccn23)cs1,-0.0962
10,O=C(NC(C(=O)c1ccccc1)N1CCOCC1)c1cccs1 (stereo not drawn),-0.745
11,CCOC(=O)C1CCCn2c1nc1sc3c(c1c2=O)CCCC3 (stereo not drawn),0.526
12,COc1ccc2oc3ccc(OC)cc3c(=O)c2c1,-0.184
13,CCN(CC)CC(=O)NCC1(c2ccccc2)CCOCC1,-0.0875
14,COc1cccc(CNS(=O)(=O)c2cc(Br)cc3c2N(C(C)=O)C(C)C3)c1 (stereo not drawn),0.241
15,CCOc1ccc(-n2c(=O)[nH]cc(C(=O)N3CCc4ccccc43)c2=O)cc1,-0.82
16,Cc1cc(C)cc(Nc2ncc3c(n2)CC(c2ccco2)CC3=O)c1 (stereo not drawn),-0.476
17,N#C/C(=C\c1ccc(-c2ccc(C(=O)O)cc2)o1)C(=O)NCC1CCCO1 (stereo not drawn),-0.15
18,CCCn1c(N2CCN(CC(=O)c3c(C)n(C)c4ccc(OC)cc34)CC2)nc2c1c(=O)[nH]c(=O)n2C,-0.339
19,Cn1cnc2cc(NC(=O)c3ccco3)ccc21,-0.102
20,Cc1ccc(CNC(=O)CCNS(=O)(=O)c2cccc3nonc23)cc1,-0.135
21,Cc1ccc(N(C(C)C(=O)N2CCC(C)CC2)S(C)(=O)=O)cc1C (stereo not drawn),-0.252
22,CCOC1(OCC)C(c2ccc(N)cc2)C(C#N)(C#N)C1(OCC)OCC (stereo not drawn),-0.359
23,Cc1ccc(-n2ncc3c2ncn2c(C)nnc32)cc1C,-0.203

row,Structure (SMILES),z-score
1,O=C(CCCCn1c(=O)c2ccccc2n(Cc2ccc(F)cc2Cl)c1=O)NCc1ccco1,-1.01
2,O=c1c2ccccc2nc(SCc2cccc(F)c2)n1C1CCCC1,-0.271
3,CC1CCN(c2oc(-c3ccccc3F)nc2C#N)CC1,2.57
4,O=C1CCCC(O)=C1C1NCCc2ccccc21 (stereo not drawn),0.281
5,O=C(NCc1ccco1)c1cc(-c2ccc3c(c2)OCO3)on1,-0.862
6,COc1ccc(-c2nn3c(-c4cccc(C)c4)nnc3s2)cc1OC,-1.06
7,CCOC(=O)c1cc(-c2ccc(/C=N\n3cnnc3)o2)ccc1Cl,-0.855
8,O=C(NC1CCCC1)C(c1ccco1)N(Cc1ccccc1)C(=O)c1csnn1 (stereo not drawn),0.267
9,O=S(=O)(NC1CCN(Cc2ccccc2)CC1)c1cccc(S(=O)(=O)N2CCOCC2)c1,-0.00491
10,CN(C(=O)c1cccnc1)c1nnc(-c2cnccn2)s1,active: -5.48
11,C/C(=N\Nc1nc2c(s1)CCCC2)c1ccccc1,-0.113
12,CCSc1nc2ccccc2n1CC(N)=O,-0.307
13,O=C(NC1CC2CCCC(C1)N2C(=O)Nc1ccc(Cl)c(C(F)(F)F)c1)C1CC1 (stereo not drawn),-0.823
14,Cc1ccccc1-n1nnnc1SCC(=O)Nc1ccc(S(=O)(=O)N2CCCC2)cc1,0.135
15,O=C(NCC(F)(F)F)Nc1ccccn1,1.45
16,CCOc1cc2c(C#N)c(N3CCCCC3)nc(N)c2c(N)n1,-0.553
17,O=C(ON=C1CCN(c2ccc([N+](=O)[O-])cc2)CC1)c1ccccc1,-0.654
18,Nc1cc(=O)[nH]c(=S)n1-c1cccc(C(F)(F)F)c1,-0.213
19,CCCCNC(=O)CSc1nc2ccccc2c(=O)n1CCNC(C)=O,-0.141
20,Cc1ccc(/C=C2/NC(=O)N(Cc3ccccc3)C2=O)s1,-0.0544
21,CCOC(=O)c1c(-c2ccc(C)o2)csc1NC(=O)CN1CCN(CC)CC1,0.301
22,O=C(Nc1nnc(SCc2ccc(Cl)cc2)s1)C1CCCO1 (stereo not drawn),0.069
23,CCOC(=O)c1c(C)nc(SC)c(C#N)c1-c1ccccc1,-0.602

row,Structure (SMILES),z-score
1,CCOC(=O)c1c(NC(=O)C2C3CCC(O3)C2C(=O)O)sc(C)c1-c1ccc(C)cc1 (stereo not drawn),-0.26
2,CC(=O)c1sc(NC(=O)C=C(C)C)nc1C,0.385
3,COc1ccc(Nc2nc(-c3cccs3)cs2)c(OC)c1,0.0723
4,COC(=O)c1nn2c(C(F)(F)F)cc(-c3ccc(Br)o3)nc2c1Br,0.186
5,Cc1ccc(-n2c(N)c(C(=O)NCc3ccco3)sc2=S)cc1,-0.322
6,COc1cccc(-c2nn(-c3ccccc3)cc2/C=C(\C#N)C(=O)NCCCn2ccnc2)c1,-0.356
7,COc1ccc(-n2nnc3c(SCC(=O)OCc4ccccc4)ncnc32)cc1,-0.804
8,O=C(COC(=O)c1ccc(Br)o1)Nc1ccc(S(=O)(=O)N2CCCC2)cc1,-0.167
9,Cc1ccc(/C=C/c2nnc(-c3ccc(C)cc3)o2)cc1,-0.335
10,Brc1ccccc1-c1nnc(CSc2nnnn2-c2ccccc2)o1,0.0301
11,c1ccc(-c2ncnc3cc4n(c23)CCC4)cc1,-0.079
12,COc1cc(Cl)c(C)cc1NC(=O)CSC,0.0277
13,COC(=O)[C@H](CC(C)C)NC(=O)NC1CCCCC1C (stereo partly drawn),-0.192
14,COc1cc(OC)cc(C(=O)NCc2cccnc2)c1,-0.0129
15,CS(=O)(=O)N(CCc1ccccc1)CC(=O)N1CCN(Cc2ccccc2)CC1,0.364
16,CSc1nc(-c2ccccc2)nn1C(=O)c1ccc(Cl)cc1,-0.251
17,CCOC(=O)c1[nH]c2ccccc2c1NC(=O)C(CC)CC,0.0802
18,CCN(CC)CCCN(Cc1cc2cc(OC)ccc2[nH]c1=O)C(=O)Nc1ccc(F)cc1,-0.482
19,COC(=O)COc1ccc(S(=O)(=O)NCc2ccco2)cc1Cl,-0.0546
20,Cc1nc2c(s1)sc1ccccc12,-0.637
21,Cc1ccc(C(NC(N)=O)c2ccccc2)cc1 (stereo not drawn),-0.39
22,COc1ccc(N2CCN(Cc3nc4c(c(=O)[nH]c(=O)n4C)n3CC(C)=O)CC2)cc1,-0.158
23,Cc1ccc(Oc2nc(-c3ccccc3)ncc2S(=O)(=O)c2ccc(C)cc2)cc1,0.119

row,Structure (SMILES),z-score
1,c1csc(-c2nnc3ccccn23)c1,-0.45
2,O=S(=O)(NCC(Nc1ccccc1)c1ccccc1)c1ccc(Cl)cc1 (stereo not drawn),-0.232
3,CC(SC1=NCCS1)C(=O)Nc1nnc(-c2ccc(Br)cc2)s1 (stereo not drawn),0.627
4,CCCc1nnc(NC(=O)c2ccc([N+](=O)[O-])cc2)s1,-0.172
5,COc1ccc(CCN(C(=O)C(F)(F)F)C(C(=O)NC2CCCC2)c2cccs2)cc1 (stereo not drawn),-0.312
6,COc1ccc(-c2nc(-c3cccc(C)c3)nc(N3CCN(C)CC3)c2C#N)cc1,0.000744
7,Cc1cccc(NCc2ccccc2O)c1,0.0826
8,CN(C)c1nc(N)nc(CSc2nc3cc(Cl)ccc3o2)n1,0.22
9,O=C1c2ccccc2C(=O)N1CCc1nc(-c2cccnc2)no1,-0.203
10,COc1ccc(OC)c2sc(NC(=O)c3ccc(S(=O)(=O)N(C)C)cc3)nc12,-0.398
11,CC1CCCCC1NC(=O)COC(=O)c1c2c(nc3ccccc13)/C(=C/c1ccco1)CC2 (stereo not drawn),-0.398
12,CCc1nc(OCc2ccccc2)c2sc3nc4c(cc3c2n1)COC(C)(C)C4,-0.296
13,CCCC(=O)NCCc1cc2ccc(OC)cc2[nH]c1=O,-0.0851
14,CC(C)Cc1cc(C(=O)Nc2cccnc2)no1,1.89
15,CCCC/C(C)=N/NC(=O)NC1CCCCC1,-0.359
16,Cc1c(C(=O)CN2CCSCC2)c2ccccc2n1C,-0.257
17,COc1ccccc1CC(NC(C)=O)C(=O)N1CCN(C(=O)c2cccs2)CC1 (stereo not drawn),-0.248
18,COc1cc(C(=O)NNC(=O)NC2CCCCC2)cc(OC)c1OC,-0.104
19,CC(N=C(NS(=O)(=O)c1ccc(Cl)cc1)c1ccccc1)C(=O)O (stereo not drawn),-0.217
20,COc1ccccc1/C=N/NC(=O)CCn1cnc2ccccc21,0.0317
21,CCOc1cc(S(=O)(=O)NC2CCCCC2)ccc1F,-0.215
22,O=C(CCc1ccc(S(=O)(=O)N2CCOCC2)cc1)Nc1ccc(N2CCOCC2)cc1,-0.442
23,CCCC(C)C(=O)Nc1nc(C)c(-c2csc(Nc3ccccc3OC)n2)s1 (stereo not drawn),-0.235

row,Structure (SMILES),z-score
1,Cn1nnc(NC(=O)c2cccc(OCc3ccccc3)c2)n1,-0.179
2,CCOC(=O)c1cccc(N2C(=O)C3C(C2=O)C2C=CC3C23CC3)c1 (stereo not drawn),0.353
3,CCN1CCN(C(=O)c2cc(-c3cccnc3)nc3ccc(Br)cc23)CC1,-0.216
4,O=C(CCC1CCCCC1)NCc1ccccn1,-0.193
5,CC(C)(C)NC(=O)CSc1nnc(NC(=O)CCn2cnc3ccccc3c2=O)s1,0.0967
6,Cc1ccc(-n2nc3cc(Cl)c(NC(=O)c4ccco4)cc3n2)cc1,0.413
7,C(=N\N1CCN(Cc2ccccc2)CC1)/c1cccnc1,-0.288
8,O=C(Nc1ccccc1-c1nc2ccccc2o1)c1ccc2c(c1)OCCO2,0.0863
9,Cc1ccc(F)cc1NCC(=O)Nc1ccc(Br)cc1,-0.285
10,CC(c1ccco1)N(C(=O)COc1ccc(Cl)cc1)c1ccccn1 (stereo not drawn),-0.0231
11,CC(C)CCn1c(N)c(S(=O)(=O)c2cccs2)c2nc3ccccc3nc21,0.344
12,CCOC(=O)C1=C(C)NC(=O)NC1c1ccc(N(C)C)cc1 (stereo not drawn),0.13
13,N=C1C(c2ccccc2)=C(O)CN1c1cccc(S(=O)(=O)Nc2cccc(C(F)(F)F)c2)c1,-0.22
14,COC(=O)C1=C(C)Nc2nnnn2C1c1ccc(Cl)cc1Cl (stereo not drawn),-0.322
15,COC(=O)c1ccc(CSc2nnc(-c3ccncc3)o2)o1,-0.111
16,Cc1csc(SCC(=O)c2cc(C)n(Cc3cccs3)c2C)n1,0.528
17,NC(=O)NC(Cc1ccccc1)C(=O)Nc1ccc(S(N)(=O)=O)cc1 (stereo not drawn),0.135
18,CCCc1sc(N/N=C/c2ccccn2)nc1-c1ccc(Br)cc1,0.283
19,COC(=O)c1c(C(=O)OC)c(-c2ccc(Cl)c(Cl)c2)n2c1CCC2,-0.675
20,O=C1c2ccsc2SCCN1Cc1ccc(Cl)cc1Cl,-0.594
21,Cc1ccc(Nc2nc3c([nH]2)c(=O)[nH]c(=O)n3C)cc1,0.102
